Test results as given in PubChem BioAssay AID588855 (National Center for Advancing Translational Sciences (NCATS), 2011).
The campaign covered roughly 410,000 compounds. About 5,000 (1.2%) were called active. The shares of active, inactive and inconclusive entries below differ from those in the screen. The call rests on the fitted dose curve; in most records, active means well fitted inhibition curve with a large enough effect; inconclusive means small, poorly fitted or top-dose-only effect; inactive means no such curve, though single readings can be large or run the other way. A potency beside an inconclusive call is a rough fit, not a confirmed value.

Assay: qHTS for Inhibitors of TGF-b; further: nearly all actives have a fitted effect of over 65% in size
Details: HepG2 CAGA-GFP TGF-b/SMAD3 reporter, GFP fluorescence, 18 h, TGF-beta stimulated, 500 pg/mL final; series mostly up to 46.1 µM; activity, negative = inhibition: at the top concentration
Procedure, shortened: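 HEPG2 CAGA-GFP reporter cells (1000/well, DMEM with 1% FBS) received compounds, then recombinant TGF-beta at 500 pg/mL final for 18 hours at 37 degrees C. Per-cell GFP summed per well was normalised to unstimulated and stimulated DMSO controls before curve fitting.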
On the % scale 0 is the no-effect control and ±100 the full control effect; potency means the concentration at half of the fitted maximal effect; tags describe the fitted curve by direction and shape.

| Compound | Potency | activity, negative = inhibition |
| --- | --- | --- |
| COc1ccccc1-n1cc(C(=O)N2CCCC(CO)(Cc3ccccc3C)C2)cn1 (stereo not drawn) | inconclusive: 5.62 µM [inhibitor, single point] | – |
| CCN=C1S/C(=C\c2cc(Br)c(O)c(OC)c2)C(=O)N1CC | inconclusive: 3.98 µM [inhibitor, single point] | – |
| COc1ccc(/C=C2/SC(=S)N(NS(=O)(=O)c3ccc(C)cc3)C2=O)cc1 | – | inactive: -18.1% |
| CCn1c(=O)cc(OCC(=O)N2CCN(c3ccc(C)cc3)C(C)C2)c2ccccc21 (stereo not drawn) | inconclusive: 35.5 µM [inhibitor, single point] | – |
| CCN(CC)S(=O)(=O)c1ccc(C(=O)NCCSc2c(-c3ccc(F)cc3)[nH]c3ccccc23)cc1 | inconclusive: 3.55 µM [inhibitor, single point] | – |
| O=C(c1cc(C2CC2)nn1-c1ccccc1)N1CCN(c2ncc(C(F)(F)F)cc2Cl)CC1 | inconclusive: 12.6 µM [inhibitor, partial curve, poor fit] | – |
| CC1CCN(C(=O)CSc2nc3ccccc3[nH]2)CC1 | inconclusive: 0.631 µM [inhibitor, partial curve, poor fit] | – |
| O=C(/C=C/Nc1ccccc1)c1ccc(Cl)cc1Cl | inconclusive: 35.5 µM [inhibitor, single point] | – |
| COc1ccccc1NC(=O)Cn1c(=O)oc2ccccc21 | – | inactive: -1.3% |
| O=C1CS/C(=N/N=C/c2cccs2)N1Cc1ccc(F)cc1 | inconclusive: 6.31 µM [inhibitor, single point] | – |
| O=C(COC(=O)c1ncc(Cl)c(Cl)c1Cl)NCCc1ccccc1 | inconclusive: 6.31 µM [inhibitor, single point] | – |
| CC(=O)c1sc(NC(=O)C2CCN(C(=O)c3ccccc3C)CC2)nc1-c1ccccc1 | inconclusive: 35.5 µM [inhibitor, single point] | – |
| CC1CCC(NC(=O)c2ccc(CS(=O)(=O)c3ccc(Cl)cc3)o2)CC1 (stereo not drawn) | inconclusive: 10 µM [inhibitor, partial curve] | – |
| COc1cccc(NS(=O)(=O)c2ccc(S(=O)(=O)N3CCCC3)cc2)c1 | inconclusive: 14.1 µM [inhibitor, partial curve, poor fit] | – |
| O=C(CN1C(=O)NC(c2ccc(F)cc2)C1=O)NC1CCCCC1 (stereo not drawn) | inconclusive: 35.5 µM [inhibitor, partial curve, poor fit] | – |
| COCCNC(=O)CN1C(=O)c2cccnc2Sc2ccccc21 | – | inactive: 16.8% |
| OC(COc1ccccc1)CN(Cc1ccccc1)CC(O)COc1ccccc1 (stereo not drawn) | inconclusive: 8.91 µM [inhibitor, partial curve, poor fit] | – |
| CC(=O)c1ccc(NC(=O)c2sc3nc(C)c(C)c(C)c3c2N)cc1 | inconclusive: 6.31 µM [inhibitor, single point] | – |
| CCOC(=O)N1CCC(N2Cc3cccc(C(=O)NCC4CCN(CC(C)C)C4)c3C2=O)CC1 (stereo not drawn) | – | inactive: 3.28% |
| O=C(COc1ncnc2ccccc12)Nc1cc([N+](=O)[O-])ccc1F | – | inactive: 2.44% |
| O=c1c2ccccc2n2c(-c3ccc(F)cc3)nnc2n1Cc1ccccc1 | inconclusive: 0.316 µM [inhibitor, full curve, poor fit] | – |
| C/C(=N\NC(=O)C(O)(c1ccccc1)c1ccccc1)c1ccc(NC(=O)CCCC(=O)O)cc1 | – | inactive: 0% |
| CCCC(=O)Nc1ccc2oc(-c3ccc(OC)c(Br)c3)nc2c1 | inconclusive: 25.1 µM [inhibitor, single point] | – |

| Compound | Potency | activity, negative = inhibition |
| --- | --- | --- |
| Cc1cc2c(c(SCC(=O)N(C)c3ccccc3)n1)C(=O)OC2 | – | inactive: 0.3% |
| CCOC(=O)C1CCN(C(=O)C2CCCN(S(=O)(=O)c3ccc(OCC)c(Cl)c3)C2)CC1 (stereo not drawn) | inconclusive: 0.447 µM [inhibitor, full curve] | – |
| COc1ccc(C)cc1N(C(=O)c1ccc(F)cc1)c1nc2ccccc2s1 | – | inactive: 6.44% |
| COc1ccc2c(c1)c(=O)c(S(=O)(=O)c1ccc(F)cc1)cn2Cc1ccccc1Cl | – | inactive: 9.16% |
| CCOC(=O)c1sc(NC(=O)CN2C(=O)NC3(CC(C)CC(C)(C)C3)C2=O)cc1C (stereo not drawn) | inconclusive: 35.5 µM [inhibitor, partial curve, poor fit] | – |
| CSc1nc(-c2ccccc2)c2cc(Cl)ccc2n1 | – | inactive: 11.1% |
| Cc1cccc(CS(=O)(=O)c2ncc(Cl)c(C(=O)Nc3nnc(C(C)C)s3)n2)c1 | active: 11.2 µM | – |
| CCc1cc(SC#N)cc(CC)c1NC(=O)CCl | active: 7.94 µM | – |
| CC(C)NC(=O)c1ccc(Cn2c(SCc3ccc(F)cc3)nc3cccnc32)cc1 | – | inactive: -28.8% |
| O=C(CCN1CCOCC1)N1c2ccccc2Sc2ccc(Cl)cc21 | inconclusive: 15.8 µM [inhibitor, single point] | – |
| COc1ccc(NS(=O)(=O)c2ccc3nc(COc4cccc5ccccc45)[nH]c3c2)cc1 | inconclusive: 35.5 µM [inhibitor, single point] | – |
| COc1ccc(N2C(=O)[C@H]3CCC=C[C@H]3[C@@H]2c2ccccc2Br)cc1 | inconclusive: 12.6 µM [inhibitor, partial curve] | – |
| O=C1C2CCCN2C(=O)N1CCCCN1CCN(c2ccccc2)CC1 (stereo not drawn) | inconclusive: 3.98 µM [inhibitor, single point] | – |
| CNC(=S)N/N=C/c1cc(Br)cc(Br)c1O | – | inactive: -14.3% |
| CCOc1ccc(NC(=O)Nc2cc(C)ccc2OC)cc1 | inconclusive: 1 µM [inhibitor, partial curve, poor fit] | – |
| Cc1nc(-c2cccc(S(=O)(=O)N3CC(C)CC(C)C3)c2)cs1 (stereo not drawn) | inconclusive: 12.6 µM [inhibitor, partial curve, poor fit] | – |
| Cc1cccc(C)c1OCCOC(=O)c1n[nH]c2ccccc12 | inconclusive: 35.5 µM [inhibitor, single point] | – |
| Cc1noc(C)c1NC(=O)N(C)C[C@H]1Oc2c(NC(=O)NC(C)C)cccc2C(=O)N([C@H](C)CO)C[C@@H]1C | inconclusive: 5.62 µM [inhibitor, single point] | – |
| CCCC(=O)Nc1cc(-c2nn(C)c(=O)c3ccccc23)ccc1N1CCOCC1 | inconclusive: 17.8 µM [inhibitor, single point] | – |
| O=C(Nc1nc(-c2ccc3c(c2)OCCO3)cs1)C1CC(=O)N(c2ccc3c(c2)OCCO3)C1 (stereo not drawn) | – | inactive: -13.7% |
| Cc1ccccc1-c1cc(-c2ccccc2O)on1 | – | inactive: -35% |
| O=C(NC(=S)Nc1cccc(Cl)c1Cl)C1CC1 | active: 1.26 µM | – |
| COc1ccc(S(=O)(=O)NN=C2CCCC2)cc1 | – | inactive: 1.92% |

| Compound | Potency | activity, negative = inhibition |
| --- | --- | --- |
| CCOC(=O)c1c(-c2ccccc2)csc1NC(=O)CSc1nncs1 | – | inactive: -12.4% |
| CCC(=O)Nc1cccc(NC(=S)NC(=O)c2ccc(Cl)cc2)c1 | inconclusive: 1.26 µM [inhibitor, full curve, poor fit] | – |
| COc1ccc(NC(=O)CSCC(=O)N2c3ccccc3CCc3ccccc32)cc1 | inconclusive: 35.5 µM [inhibitor, single point] | – |
| CCOC(=O)C1CCN(C(=O)COC(=O)c2ccc([N+](=O)[O-])o2)CC1 | active: 17.8 µM | – |
| O=C(Nc1ccc(N2CCCCC2)cc1)c1ccccn1 | – | inactive: 7% |
| COc1ccc(-c2cc(C(=O)NCc3cn(C)nc3C)c3ccccc3n2)cc1OC | – | inactive: 14.5% |
| Nc1ccc2c(c1)Oc1ccccc1C=C2 | inconclusive: 12.6 µM [inhibitor, partial curve, poor fit] | – |
| C=CCNC(=O)c1ccccc1NC(=O)c1ccc(Cl)c(S(=O)(=O)Nc2ccccc2)c1 | inconclusive: 12.6 µM [inhibitor, single point] | – |
| COc1ccc(CCNC(=O)c2ccc(Cl)cc2)cc1 | – | inactive: -5.45% |
| CCc1cc(=O)[nH]c(SCc2cccc3ccccc23)n1 | inconclusive: 0.891 µM [inhibitor, full curve] | – |
| COc1ccc(N(CCCN2C(=O)c3cccc4cccc(c34)C2=O)C(=O)c2cccc(OC)c2)cc1 | – | inactive: -18.3% |
| O=C(NNC(=O)c1cc(Br)c(Br)s1)c1ccncc1 | – | inactive: -1.62% |
| CC(=O)OC[C@H]1O[C@@H](Sc2cccc3cccnc23)[C@H](OC(C)=O)[C@@H](OC(C)=O)[C@H]1OC(C)=O | inconclusive: 35.5 µM [inhibitor, single point] | – |
| C/C(=N\N=C(/N)SC1CC(=O)N(c2cccc(Cl)c2)C1=O)c1cccs1 (stereo not drawn) | inconclusive: 20 µM [inhibitor, partial curve, poor fit] | – |
| Cc1ncn(C23CC4CC(CC(C4)C2)C3)n1 | inconclusive: 3.16 µM [inhibitor, single point] | – |
| COc1cccc(-c2cccc(-c3nc(C(=O)NCc4ccc(Oc5ccccc5)cc4)cc4c3[C@H](CCO)N(S(=O)C(C)(C)C)C4)c2)c1 (stereo partly drawn) | inconclusive: 22.4 µM [inhibitor, single point] | – |
| Brc1ccc(N/N=C(/N=Nc2nn[nH]n2)c2ccccc2)cc1 | inconclusive: 0.447 µM [inhibitor, partial curve, poor fit] | – |
| Cc1ccc(NS(=O)(=O)c2ccc(NC(=O)C3CC3)cc2)c(C)c1 | inconclusive: 11.2 µM [inhibitor, partial curve] | – |
| CC(c1nnc(SCC(=O)c2c(N)n(C3CC3)c(=O)[nH]c2=O)n1-c1ccc(F)cc1)N(C)C (stereo not drawn) | – | inactive: -1.96% |
| COc1ccc2c(c1)CCc1c(C(=O)N3CC4(C)CC3CC(C)(C)C4)noc1-2 (stereo not drawn) | inconclusive: 25.1 µM [inhibitor, single point] | – |
| COc1ccc2ccccc2c1CNC(C)CCc1ccccc1 (stereo not drawn) | inconclusive: 31.6 µM [inhibitor, single point] | – |
| COC(=O)c1ccc(C2Nc3c(C)cccc3-c3cc(C)nn32)cc1 (stereo not drawn) | inconclusive: 11.2 µM [inhibitor, partial curve, poor fit] | – |
